The supplement of paper PMC10126150
Sequences with one replicate were seen in a single cluster, so their values are uncertain.

system: ATP; assay: switch fluorescence ratio, 500 uM ATP over buffer (Cy3 cluster intensity, sum of 5 cycles each) (fold (ratio)); higher = stronger signal-on switching upon ATP binding; sequences stand for … in TCGTCGGCAGCGTCAGATGTGTATAAGAGACAGTTTTTTTTTTTTTTTTTTTTTTTTT…TC; conditions: aptamer strand: ATP DNA aptamer (quencher-CACCTGGGGGAGTATTGCGGAGGAAGG + anchor), 100 nM annealed; ATP concentration: 500 uM; one replicate
How it was run: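 After annealing to 100 nM quencher-labelled ATP aptamer, Cy3-labelled switching-strand clusters on a modified Illumina MiSeq flow-cell were imaged in selection buffer. A second image followed after 15 min with 500 uM ATP at 22 °C, and five such buffer/ATP cycles were done, each separated by NaOH stripping and re-annealing. The fluorescence ratio, averaged per switch-domain sequence, is summed target-cycle over summed buffer-cycle Cy3 intensity per cluster, with clusters outside 100-1000 RFU excluded.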
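Further: ATP exposure 15 min at 22 °C before imaging.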

Sequence | switch fluorescence ratio
AGCGAATTTC | 1.85
AATGTATTA | 1.1
GTTCTCG | 0.972
TCTCTTTAAG | 1
CGGATTTTAC | 1.03
AAGCTTCAC | 1.36
GGTGATCGTT | 1.02
AATTTGAGGT | 1.06
GGTAGGGCTG | 1.02
ATGTTTGTG | 0.963
TCATTTGGGC | 0.976
CTCTCTATGC | 2.19
GAGGGAATAC | 1.72
GGAGCGTTC | 1.45
ACAGGGATGG | 0.985
CCACGGAG | 1.02
GGAACACTAA | 1.02
GCTTCGTCTG | 1.11
GACTGGCTCA | 0.991
CTTGCGCATA | 3.16
GGTTCTCTGT | 1
ATGCTCTCAG | 1
ACTAAAACAC | 1.19

Sequence | switch fluorescence ratio
ATGGAGATAT | 1.01
GGCGATCGGG | 1.03
TGAGTTCCGG | 0.987
GCGTGTACGT | 1.01
CACACCTGTA | 1.03
AGTGGGCCCA | 0.978
GTGATATGTT | 1.01
AGGGACCGCT | 1.03
TACCCACGCA | 1.45
ACAAGACGTT | 1.04
GAGAGTATTA | 1.07
TTGTTTAGG | 0.97
TTGGTATCAA | 1.01
TTTACGGCAA | 1.47
TAAATTAAGG | 0.966
CGGGTAGAGC | 1.01
TCGGTAGCCC | 1.01
ACACACTAAT | 1.23
GATGATCATC | 1.02
TGTTGCATGC | 0.933
TGCGTTCAAT | 1.05
CCGATACAGT | 2.03
CTGCGTTATT | 1.02

Sequence | switch fluorescence ratio
TTGCTACAAG | 1.02
TTCAGTTTTC | 1.08
TTAAGAAAGA | 1.01
TCCTTTGAGA | 1.02
TACCAAATGG | 0.98
ACTTAATATA | 1
GCACCTCGGT | 1.05
GGGGTAATCG | 1
GGTGTAGACT | 0.944
ATTGCGTGGA | 1.02
CCGGCATGTT | 1.12
AACCTGTTG | 1.06
ACTGAGGACT | 1.06
ATTCGCCGCC | 0.947
GTTGTCCGCT | 1.06
AGTAATATCG | 1.01
ACCGGTAAAG | 0.991
TGTGTATGG | 0.979
AACAAGTCCA | 1.01
ATCCAGTCTG | 0.992
GACGGAGGAG | 0.967
TACGAGTAAT | 1.01
TTCCACGTTG | 1.02

Sequence | switch fluorescence ratio
GACCTTCTGT | 1.11
CAGACTTGGG | 0.968
TGTTAAATCG | 0.984
GTTTTTTCCT | 1.04
AGTTCGCGGG | 1.02
GAGTTCGACC | 1.03
CATCTCAGGC | 1.16
ATCATAGAGC | 0.915
GGGTGTGTCG | 0.985
GTAGGAGACG | 1.14
TGTATCTAGT | 0.992
ACATGGGTAC | 1.06
GACTGGTCGT | 1
GAGGGCCCTG | 1.07
GGGCAACC | 1.04
CGAAGTGGCG | 0.994
ACTGGGCTGA | 1.05
ATGGTCTAA | 0.998
CAGGGTCTAG | 0.947
GAAGTTTAGT | 0.996
TGCAGTGTAT | 1
TCAACGCTGT | 1.08
TAGAAGATGC | 0.988

Sequence | switch fluorescence ratio
ACTCTATGCG | 0.99
GCACGATG | 1.01
GGTATGGTGT | 1.01
TTCGAAAACA | 1.03
GCAAGTTCGG | 0.995
GGTAAACGAC | 1.04
TGGGCTGCGA | 1.03
AGTGCTAAAA | 1.01
TTAACTTAGA | 0.995
ACGTCCGTGA | 1.1
CCTTGCGCTG | 1.73
GACTCAACTA | 1.07
GAGTAAGTAG | 0.977
AGGTGTCTAT | 1.01
GTGCGACCTC | 1.11
TGACCGCGTC | 1.03
GCAGACGGGC | 0.962
GGTCCCCTAA | 0.98
CTCGTGCTAG | 0.974
CTAAGCCATG | 1.13
TTATAGCGCG | 0.989
ATGTATACGT | 0.971
AAATGGCGGC | 0.935

Sequence | switch fluorescence ratio
TCCATACGGT | 0.984
TAAGCTCAGG | 1.05
AGGGCAAAGG | 1.04
TCGAATTCAG | 1.01
GATTTCGTCA | 1.03
GGGACGCTCT | 1.05
TCGGATTCGG | 0.985
CTAAATAGAT | 0.913
AGCCGGGGCC | 0.978
TGAGGAAACG | 0.976
CTCGGCAGAA | 2.34
TGTAATTCCA | 1
TAAACATGCC | 1.42
ATGCTATTAT | 0.987
ACGGAGAATT | 1.08
GGTCGCTTTC | 0.967
TCCGGGGGA | 3.09
AGTGCAGTCG | 1.01
AGCTGCAGGT | 1.01
AAGTTAGATT | 1.04
TTGTGAATGG | 0.991
GGTATACCAC | 1
GCATCCAGC | 0.991

Sequence | switch fluorescence ratio
TACGCACTTA | 1.4
TCCGTACTAG | 1.04
ATCTTATTAA | 0.988
CAACAGCCTG | 1.07
CTCTCCGGCC | 2.57
CAAAGCGC | 0.976
CCTGATGTAT | 0.995
GAGGCGGAA | 1.04
ATATTTATAA | 1.05
TGGGTGGCAG | 1.01
ATGGCTCTGG | 1.01
ATCTGCAAGG | 1.19
CGTGTTGTCA | 1.01
GTGATACGGC | 1.07
GCAATTTTC | 1.29
CTCTGTTTTC | 1.13
AGTGTTTCTT | 1
ATAAACCTAT | 1.04
GTCGAGGAAG | 1.02
CAATTTGAGG | 0.984
